Structures are written as SMILES. Hit rate of the full screen: of about 310,000 compounds, about 2,200 (0.71%) showed an effect of 50% or more. Effects have a minus sign here. Some of the results follow.

Chain of human ether-à-go-go-related gene (hERG) potassium channel (Q12809 whole entry, looked up): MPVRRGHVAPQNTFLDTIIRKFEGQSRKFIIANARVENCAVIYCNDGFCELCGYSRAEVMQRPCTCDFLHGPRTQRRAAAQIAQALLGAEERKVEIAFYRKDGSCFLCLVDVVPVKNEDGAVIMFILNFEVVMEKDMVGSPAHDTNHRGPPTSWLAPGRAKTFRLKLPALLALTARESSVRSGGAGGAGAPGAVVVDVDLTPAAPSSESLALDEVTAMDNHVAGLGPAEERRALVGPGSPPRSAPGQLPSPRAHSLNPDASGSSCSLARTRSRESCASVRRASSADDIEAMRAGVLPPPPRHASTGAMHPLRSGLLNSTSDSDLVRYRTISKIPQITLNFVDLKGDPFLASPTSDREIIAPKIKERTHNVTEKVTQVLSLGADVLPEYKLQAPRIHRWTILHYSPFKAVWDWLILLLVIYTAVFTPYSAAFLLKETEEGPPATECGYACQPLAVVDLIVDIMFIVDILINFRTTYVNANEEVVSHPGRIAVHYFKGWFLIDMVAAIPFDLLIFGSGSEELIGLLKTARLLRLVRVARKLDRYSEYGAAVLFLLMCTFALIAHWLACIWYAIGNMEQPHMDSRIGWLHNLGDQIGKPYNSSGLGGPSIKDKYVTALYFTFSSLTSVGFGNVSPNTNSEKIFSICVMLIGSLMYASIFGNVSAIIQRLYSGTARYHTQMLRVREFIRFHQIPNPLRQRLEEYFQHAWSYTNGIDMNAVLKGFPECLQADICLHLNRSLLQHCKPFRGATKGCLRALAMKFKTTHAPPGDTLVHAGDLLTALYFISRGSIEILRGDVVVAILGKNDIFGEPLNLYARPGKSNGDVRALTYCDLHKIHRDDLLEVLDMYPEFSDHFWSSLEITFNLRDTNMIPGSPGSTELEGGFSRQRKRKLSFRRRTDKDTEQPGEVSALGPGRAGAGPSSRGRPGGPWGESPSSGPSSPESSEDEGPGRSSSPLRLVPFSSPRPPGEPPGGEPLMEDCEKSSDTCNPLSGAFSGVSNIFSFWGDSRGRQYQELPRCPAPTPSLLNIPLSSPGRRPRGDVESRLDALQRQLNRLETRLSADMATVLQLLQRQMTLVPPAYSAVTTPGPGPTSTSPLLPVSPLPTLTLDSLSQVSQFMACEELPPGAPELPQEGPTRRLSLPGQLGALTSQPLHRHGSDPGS

This test has as its target human ether-à-go-go-related gene (hERG) potassium channel (human, UniProt Q12809). Nature of the test: primary screen, population patch clamp on CHO cells stably expressing hERG.
As to `CCOc1ccc(/C(O)=C2/C(=O)C(=O)N(c3ncccn3)C2c2ccccc2)cc1` (centres unmarked), the “hERG current change (%, negative = inhibition) at 1uM” value is on record as 6.57%. The result for `O=S(=O)(c1ccc(Cl)cc1)c1cnc(-c2cccnc2)nc1-c1ccccc1` reads 3.26%; that for `O=C1NN(c2ccccc2)C(=O)/C1=C\c1cccn1-c1ccc(Cl)c([N+](=O)[O-])c1`, 6.1%; that for `Cc1ccc(-n2c(C)cc(/C=C3/C(=O)NC(=O)N(C)C3=O)c2C)cc1`, 15.4%.

For `Cc1cccc(CN2C(=O)c3ccccc3Sc3ccc(C(=O)NCCCN4CCOCC4)cc32)c1`, the “hERG current change (%, negative = inhibition) at 1uM” value worked out at 11.9%.

In the case of `CC(C)CC(=O)NC1(C(F)(F)F)C(=O)Nc2c1c(=O)n(C)c(=O)n2C` (centres unmarked), the “hERG current change (%, negative = inhibition) at 1uM” value worked out at 9.07%. The result for `O=C1c2ccccc2C(=O)N1CCCON1C(=O)c2ccccc2C1=O` reads 0.362%; that for `Cc1cc(NC(=O)CSc2nccn2C)n(-c2ccccc2)n1`, 13%. The value for `CN(C)S(=O)(=O)c1ccc(C(=O)NCC2(N3CCCCC3)CCCCC2)cc1` was 4.22%; that for `O=C(Nc1nccs1)C1(c2ccc(Cl)cc2)CC1` was 9.12%. With `O=[N+]([O-])c1cc(S(=O)(=O)c2ccc([O-])c([N+](=O)[O-])c2)ccc1[O-].[Na+]`, the “hERG current change (%, negative = inhibition) at 1uM” value is given as 18.4%. The result for `Cc1cc(C(=O)N2CCN(c3ccccn3)CC2)c(C)o1` reads 4.33%; that for `Cc1nc(NC(=O)c2ccc(F)cc2)nc2cc3c(cc12)OCO3`, 5.87%; that for `CCCC(=O)NC(=S)Nc1ccccc1C(F)(F)F`, 12.2%. The result for `O=C1NC(=O)C(=Cc2ccc3c(c2)OCO3)C(=O)N1` reads 13.3%. The value for `Cc1cccc(-c2nn(-c3ccccc3)cc2C(=O)Nc2cccc(S(=O)(=O)NC3=NCCC3)c2)c1` was 9.34%; that for `O=C(CSc1ccc2ccccc2c1)Nn1cnnc1` was 15.4%. With `CC1CCCC(C)N1NC(=O)c1cccc(S(=O)(=O)N2CCc3ccccc32)c1` (centres unmarked), the “hERG current change (%, negative = inhibition) at 1uM” value worked out at 13.9%. The result for `CC(C)C(NC(=O)CCNC(=O)c1ccccc1Cl)c1nc2ccccc2[nH]1` (centres unmarked) reads 1.56%. The result for `Cc1nc(-c2noc(-c3ccccc3Cl)n2)c(C(F)(F)F)o1` reads 12.2%; that for `O=C(c1cccc([N+](=O)[O-])c1)N1CCCC(C(=O)N2CCc3ccccc3C2)C1` (centres unmarked), -3.29%; that for `CC1CC(C)CN(C(=O)Cn2c(-c3nonc3N)nc3ccccc32)C1` (centres unmarked), 5.48%. The result for `CC1(C)Cc2cccc(OCC(=O)Nc3cc(C(F)(F)F)ccc3N3CCOCC3)c2O1` reads 10.7%; that for `COc1ccc(Cc2nnc(NC(=O)CSc3ccc(C)cc3)s2)cc1`, 21%; that for `Nc1nc2ncc(C(=O)c3cc(Cl)cc(Cl)c3O)cc2s1`, 7.66%. With `O=C(COC(=O)Cc1ccccc1F)Nc1cccc(F)c1`, the “hERG current change (%, negative = inhibition) at 1uM” value is 12.1%. `Cc1ccc(OCCNC(=O)c2ccc3ccccc3n2)cc1`: the “hERG current change (%, negative = inhibition) at 1uM” value was found to be 0.207%. In the case of `Cc1noc(C(=O)NCc2ccco2)c1Cl`, the “hERG current change (%, negative = inhibition) at 1uM” value is given as 1.53%. The result for `Cc1ccc(N=C2c3ccccc3C(=O)C2[N+](=O)[O-])cc1C` (centres unmarked) reads 11.5%; that for `CCc1ccc(NC(=S)N2CCNC(=O)C2CC(=O)OC)cc1` (centres unmarked), -0.278%; that for `O=C(Cn1c(-c2cscn2)nc2ccccc21)Nc1cc(F)ccc1F`, 11.9%.

As for `COc1ccccc1CNC(=O)CSc1ccsc1[N+](=O)[O-]`, the “hERG current change (%, negative = inhibition) at 1uM” value is 6.97%. The result for `Cc1cccc(CSc2nnc([C@@H]3CCCN3)o2)c1.Cl` reads -1.5%. For `CCOC(=O)c1ccc(N/C=C\C(=O)c2cccc(OC)c2)cc1`, the “hERG current change (%, negative = inhibition) at 1uM” value came to 8.2%.

For `CCOC(=O)C1=C(C)N=c2s/c(=C\c3cccc(OCC(=O)O)c3)c(=O)n2C1c1ccccc1OC` (centres unmarked), the “hERG current change (%, negative = inhibition) at 1uM” value came out at 14.5%.

Take `CSc1ccccc1NC(=O)C1CCCO1` (centres unmarked): the “hERG current change (%, negative = inhibition) at 1uM” value is 3.29%. The result for `Cc1ccc(CCNC(=O)C2CCN(C(=O)c3sccc3-n3cccc3)CC2)cc1` reads -4.63%.

As to `Cc1cc(NC(=O)C2C3C(=O)N(Cc4ccc(Cl)cc4)C(C(=O)NCc4ccccc4)C34C=CC2(C)O4)no1` (centres unmarked), the “hERG current change (%, negative = inhibition) at 1uM” value turned out to be 4.72%. The value for `CCCCNS(=O)(=O)/C=C/c1ccccc1` was 13.9%; that for `COc1ccc(OC)c(/C=C/C(=O)OCC(=O)N2CCCC2)c1` was 12.3%. For `O=C1CC(c2ccc(S(=O)(=O)NC3CC3)cc2)CN1` (centres unmarked), the “hERG current change (%, negative = inhibition) at 1uM” value stood at 2.43%. Turning to `Cc1cc(Cl)ccc1Oc1nccc(N(C)C)c1C#N`, the “hERG current change (%, negative = inhibition) at 1uM” value amounted to 5.45%. As to `COC(=O)C(C)Oc1ccc2c(-c3cccc([N+](=O)[O-])c3)cc(=O)oc2c1` (centres unmarked), the “hERG current change (%, negative = inhibition) at 1uM” value is on record as -8.25%. The result for `O=C(Nn1c(SCc2ccc([N+](=O)[O-])cc2)nc2ccccc2c1=O)c1ccc(F)cc1` reads 7.8%.

For the origin of these results see PMC4336329 (PLoS ONE, 2015).
